The source of these data is PubChem BioAssay (NCI).

Molecules are shown by their SMILES. Where “and” joins values, the source holds several entries; their conditions need not be identical. Identical values can stand only once.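 Test compounds were applied to cells in 96-well plates for 48 hours at 5 doses. At the GI50, growth is halved. TGI: concentration producing complete growth inhibition.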 Some results are limits rather than exact numbers.

The test system of this assay is NCI-H322M lung. The assay is described as follows: NCI anticancer screen, dose series, 48 h.
`O=C1C(Nc2cccc(O)c2)=C(Sc2ccccc2)C(=O)N1Cc1ccccc1`: the GI50 was 12.9 µM and the TGI is 25.5 µM. `CC(=O)CC(=O)CCC(=O)Nc1cccc(C(F)(F)F)c1` came in with a TGI above 100 µM. Compound `COc1ccc(C(=O)Oc2c(C#N)sc3c2c(=O)n(-c2ccccc2)c(=S)n3-c2ccccc2)cc1` had a TGI above 100 µM. Turning to `Cc1ccc(/N=N/C(=NNC(=O)c2ccc(C)cc2)c2ccc(N(C)C)cc2)cc1`, the TGI is above 100 µM. In the case of `CC(=O)[CH-]C(C)=O.CC(=O)[CH-]C(C)=O.CC(=O)[CH-]C(C)=O.[Ga+3]`, the GI50 was above 100 µM and the TGI was above 100 µM.

For `C[C@@H](NC(=O)c1ccc(F)cc1)c1ccc2c(c1)CCN2C(=O)C1CCOCC1`, the GI50 is above 100 µM and the TGI was above 100 µM. `CC(C)N(C(=O)C12C3C4C1C1C2C3C41C(=O)N(C(C)C)C(C)C)C(C)C` (configuration not stated) had a TGI above 50 µM. As for `c1ccc(C2CCCCC2)c(OCCCCCN2CCNCC2)c1`, the GI50 is 4.25 µM and the TGI worked out at 16.1 µM.

`O=C(/C=C(\Nc1ccccc1O)c1ccc(Br)cc1)C(Cl)(Cl)Cl` yielded a TGI of 7.09 µM. `Cc1ccc(S(=O)(=O)N2CC(CCN)c3ccccc32)cc1` (configuration not stated) displayed a TGI of 22.5 µM.

Regarding `CC1SC(c2ccc(Cl)cc2)N(CCc2cccs2)C1=O` (configuration not stated), the GI50 is 2.21 µM and the TGI was determined as 7.03 µM. The compound `O=S(=O)(O)c1ccc2cc(N=Nc3c(O)ccc4ccccc34)ccc2c1` had a TGI above 100 µM. In turn, `COc1ccc(NC(=O)C(=O)Cc2nc3ccc(C(=O)c4ccccc4)cc3[nH]c2=O)c([N+](=O)[O-])c1` showed a TGI above 100 µM. The compound `COCCOCOC(C)(C)[C@H](CCO)O[Si](c1ccccc1)(c1ccccc1)C(C)(C)C` returned a TGI of 31.5 µM.

Take `Cc1ccc(C2=Nc3ccccc3SC(c3cccc4c3OCO4)C2)cc1` (configuration not stated): the TGI was found to be 45.9 µM. Compound `O=c1[nH]c(=S)[nH]c(-c2ccccc2)c1Cc1c(O)ccc2ccccc12` came in with a TGI of 77.7 µM. In the case of `C[C@H]1CN(C2COC2)CCN1c1ccc(Nc2cc(-c3ccnc(N4CCn5c(cc6c5CC(C)(C)C6)C4=O)c3CO)cn(C)c2=O)nc1`, the GI50 is 41.7 µM and the TGI is above 100 µM. Regarding `Nc1ccc(-c2nc3ccc(F)cc3s2)cc1I`, the TGI was above 100 µM. For `O=C1/C(=C/c2cccs2)NC(=S)N1CN1CCCCC1`, the TGI is above 100 µM.

Consider `N#C/C(=C1\OC(=N)C(c2ccc(Cl)cc2Cl)C1=O)c1ccc(Cl)cc1Cl` (configuration not stated), for which the TGI was above 100 µM.

Regarding `O=C(O)C12CC3CC(CC(F)(C3)C1)C2`, the TGI was above 100 µM. Same read-out and setting: to `Cc1ccc(/C=C2\Cc3cc(C)c(C)cc3C2=O)c(C(=O)O)c1` belongs above 100 µM. As to `COc1ccc2c(c1)C(=O)c1c-2c(=O)n(CCCN(C)C)c2cc(OC)c(OC)cc12`, the GI50 was 14.7 µM and the TGI worked out at 27.8 µM. Turning to `CSC1=Nc2c(c(C)c(-c3ccccc3)n2COC(CO)CO)C2=NC(=O)CN12`, the GI50 was above 100 µM and the TGI is above 100 µM. `BrCc1ccc(CBr)c2c1-c1c(CBr)ccc3ccc(CBr)c-2c13` registered a TGI above 100 µM.

The compound `Cc1c(C2=NN=C(N=Nc3c(O)cccc3O)/C2=C/c2ccccc2)c(=O)n(-c2ccccc2)n1C` came in with a TGI above 100 µM. Regarding `CN(C)CCCn1c2c(c3cc4c(cc3c1=O)OCO4)C(=O)c1ccccc1-2`, the GI50 is 3.12 µM and the TGI turned out to be 10.5 µM. For `C=C1C(=O)O[C@H]2[C@H]1CC/C(COC(=O)NCc1c[nH]c3ccc(F)cc13)=C\CC[C@@]1(C)O[C@@H]21`, in that order: 5.28 µM and 18.7 µM. `O=[N+]([O-])c1cc(Cc2cc([N+](=O)[O-])c3cccnc3c2O)c(O)c2ncccc12` returned a TGI of 47.2 µM. For the compound `O=[N+]([O-])C(=C/c1cccc2ccccc12)/C(=C\c1cccc2ccccc12)[N+](=O)[O-]`, the TGI came to 21.9 µM. `O=[N+]([O-])/C=C/c1ccc(Cl)cc1Cl` registered a TGI of 30.1 µM. As to `O=S(=O)(O)c1ccc2cc3nn(-c4ccc(/C=C/c5ccc(-n6nc7cc8ccc(S(=O)(=O)O)cc8cc7n6)cc5S(=O)(=O)O)c(S(=O)(=O)O)c4)nc3cc2c1`, the GI50 is 73.6 µM and the TGI is above 100 µM. As to `c1ccc(C2=C(c3ccccc3)Sc3nnc(CCCCCCCCc4nnc5n4NC(c4ccccc4)=C(c4ccccc4)S5)n3N2)cc1`, the TGI was above 100 µM. On the same count and under the same terms, under `N#CNC1=NC(N)C(c2nc3ccccc3[nH]2)=C(CCCC(=O)Nc2cccc([N+](=O)[O-])c2)N1` (configuration not stated) stands above 100 µM; under `O=C(Nc1nc2ncn(CCO)c2c(=O)[nH]1)c1ccccc1`, above 100 µM. For the compound `O=C(c1ccco1)c1c(C(F)(F)F)n([O-])c2cc(F)c(F)cc2[n+]1=O`, the GI50 was 1.81 µM and the TGI was determined as 4.59 µM.

Compound `C=C[C@]1(O[Si](C)(C)C)C[C@@]2(C(=O)OCC)C(O)C(=O)N3CCc4cc(OC)c(OC)cc4[C@]312` (some centres not stated) showed a TGI above 100 µM.

Turning to `O=C(CO)C1CC2C=CC1C2` (configuration not stated), the TGI was above 100 µM. In turn, `C=CCNC(=O)CN(CC(=O)O)C1CCCCC1N(CC(=O)O)CC(=O)O` (configuration not stated) came in with a TGI above 100 µM. For `COc1ccc2nc3cc(Cl)ccc3c(N3CCN(c4ccnc(N5CCN(C)CC5)n4)CC3)c2c1`, the GI50 was 10.7 µM and the TGI stood at 25.1 µM. The compound `COc1ccc(-n2c(C)nc3ccc(NC4OC(CO)C(O)C(O)C4O)cc3c2=O)cc1` (configuration not stated) displayed a TGI above 100 µM. In the case of `CC1CCC2C(CN(CC3=C(C(F)(F)F)OC4OC5(C)CCC6C(C)CCC3C46OO5)CC3=C(C(F)(F)F)OC4OC5(C)CCC6C(C)CCC3C46OO5)=C(C(F)(F)F)OC3OC4(C)CCC1C32OO4` (configuration not stated), the GI50 was 59.5 µM and the TGI is above 100 µM. Take `O=c1ccn(/C=C/C(O)C(O)CO)c(=O)[nH]1` (configuration not stated): the TGI was above 100 µM.

`Nc1nc(-c2ccc(Cl)cc2)nc2c1sc(=S)n2-c1ccccc1`: the GI50 was 4.47 µM and the TGI amounted to 23.7 µM. Compound `Nc1[nH]c(=O)[nH]c(=O)c1Cc1cccc(Cl)c1` displayed a TGI above 100 µM. For the compound `COc1cc(-c2ncn(/C=C\c3nnco3)n2)cc(C(F)(F)F)c1`, the GI50 was 0.262 µM and the TGI is 47.5 µM.

On to `COc1cc(C(=O)C2CC3(CCC2(O)c2cc(OC)c(OC)c(OC)c2)CC(=O)Nc2ccccc2C3=O)cc(OC)c1OC` (configuration not stated), for which the TGI is above 100 µM. Take `Cn1c(C(=O)c2cccc3ccccc23)nc2ccccc21`: the GI50 was above 100 µM and the TGI is above 100 µM. With `CSc1nc2c3ccccc3ccn2c1C(=O)N/N=C/c1ccccc1`, the TGI was above 100 µM. For the compound `CCOC(=O)C(Cc1ccc(N(CCCl)CCCl)cc1)NC(=O)C(Cc1ccccc1)NC(C)=O` (configuration not stated), the TGI was above 0.573 µM. Take `Cc1nnc(N/N=C(/C(=O)C(C#N)c2ccc(Cl)cc2)C(C#N)c2ccc(Cl)cc2)n1N` (configuration not stated): the TGI amounted to 30.3 µM.

Regarding `O=c1[nH]c2ccccc2n1C1CCN(CCCC(c2ccc(F)cc2)c2ccc(F)cc2)CC1`, the GI50 is 2.33 µM; the TGI is 6.14 µM and 25.1 µM.

The compound `COC(=O)CCC(NC(=S)N/N=C(\C)c1cnccn1)C(=O)OC` (configuration not stated) yielded a TGI above 100 µM. With `Cc1nc(N(C(C)C)C(C)C)c(C(C)C)o1`, the TGI is above 100 µM.
